# Measured values reported in PubChem BioAssay AID1466 (National Center for Advancing Translational Sciences (NCATS), 2008).
# Screen size: about 200,000 compounds; about 10 (0.005%) were called active. The inconclusive results got no clear call from the source; some entries with a clear call stand among them for comparison. Calls come from the whole dose curve; as a rule, active = well fitted inhibition curve with a large enough effect; inconclusive = small, poorly fitted or top-dose-only effect, or effect the other way, or another doubt; inactive = no such curve, though single readings can be large or run the other way. Potencies of inconclusive entries are left out as doubtful fits.
# Molecular target: Lysosomal alpha-glucosidase (Homo sapiens) (UniProt P10253)
# Test: qHTS Assay for Inhibitors of Human alpha-Glucosidase as a Potential Chaperone Treatment of Pompe Disease;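 for activity change, negative = inhibition: plate controls were uninhibited enzyme wells for no effect and no-enzyme background for full effect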
# Conditions: purified human GAA, 4-MU-alpha-glucoside fluorescence; activity change, negative = inhibition: at 76.9 µM (top of the series) unless noted
# Procedure, shortened: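 Fluorogenic assay: 4 nM human alpha-glucosidase with 400 uM 4-methylumbelliferyl-alpha-D-pyranoside in 50 mM citrate/phosphate, 0.005% Tween-20, pH 5.0, 20 min at room temperature. Compounds tested up to 77 uM; AC50 from Hill fits.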
# Potency is the fitted concentration of half-maximal effect; tags give direction and shape of the fitted curve.
SMILES,"activity change, negative = inhibition",Potency
Cc1cc(Nc2cccc(C(F)(F)F)c2)n2nc(C)nc2n1,inconclusive: -15.1% [inhibitor],
Cc1ccccc1OCCn1cc(C(=O)O)c2ccccc21,,inactive
COCc1cc(C)nc(N)c1C#N,,"inconclusive [inhibitor, single point]"
O=C(c1ccccc1)c1ccc(OCCOCCN2CCN(Cc3ccccc3)CC2)cc1,,inactive
CCc1c(C)nc(SCC(N)=O)c(C#N)c1C,,"inconclusive [inhibitor, full curve, poor fit]"
COc1ccc(N(CC(=O)Nc2cccc(C)c2C)S(=O)(=O)c2c(C)n[nH]c2C)cc1,,"inconclusive [inhibitor, partial curve]"
O=C1C(Cl)=C(N2CCN(Cc3ccccc3)CC2)C(=O)N1Cc1ccccc1,inconclusive: 6.28% [activator],
c1ccc(-c2nc3ccccn3c2NCc2ccc3c(c2)OCO3)cc1,,inactive
O=C(Nc1ccccc1C(=O)N1CCCCC1)c1cccc(S(=O)(=O)N2CCOCC2)c1,,"inconclusive [inhibitor, single point]"
COc1ccccc1CNS(=O)(=O)c1ccc(C)cc1,inconclusive: -17% [inhibitor],
O=P(CCCCCCCCCP(=O)(c1ccccc1)c1ccccc1)(c1ccccc1)c1ccccc1,,"inconclusive [inhibitor, single point]"
COc1cc(CN2CCN(Cc3ccc(C)cc3)C(CCO)C2)ccc1O (centres undefined),inconclusive: 15.2% [activator],
Cc1cc(C)nc(NCCO)n1,,"inconclusive [activator, full curve, poor fit]"
Fc1ccc(-c2nc3ccccc3[nH]2)cc1,inconclusive: 17.4% [activator],
Cc1nnc(SCC(=O)N2CCN(S(=O)(=O)c3ccccc3)CC2)s1,,"inconclusive [inhibitor, single point]"
COc1ccc(NC(=S)N(CCN2CCCCC2)Cc2ccco2)cc1,,"inconclusive [inhibitor, full curve, poor fit]"
C/C(N)=C(/C#N)C(=O)COC(=O)CCSc1ccccc1Cl,,"inconclusive [inhibitor, single point]"
CCCCP(=O)(c1ccccn1)c1ccccn1,,inactive
CSc1cccc(NS(=O)(=O)c2ccccc2)c1,,"inconclusive [inhibitor, single point]"
COc1ccccc1Oc1nc(-c2cccnc2)nc2ccccc12,,"inconclusive [inhibitor, full curve]"
COc1ccc(C(=O)Cn2c(NCCO)nc3ccccc32)cc1,inconclusive: 15.3% [activator],
C/C(=N\NC(=O)c1c(Cl)c(C)nn1C)c1cccc(NC(=O)COc2ccccc2)c1,inconclusive: 56.7% [activator],
COc1ccccc1NS(=O)(=O)c1cccc(C(=O)N/N=C2\CC(=O)CC(C)(C)C2)c1,,inactive

SMILES,"activity change, negative = inhibition",Potency
CCN(CC)c1ccc(N=Cc2ccc([N+](=O)[O-])o2)cc1,,inactive
O=C(COc1cccnc1[N+](=O)[O-])Nc1ccccc1Sc1ccccc1,,"inconclusive [inhibitor, partial curve]"
CCOc1ccc2[nH]c(=O)c(CN(CCN3CCCC3)C(=S)Nc3ccccc3OC)cc2c1,inconclusive: 15.7% [activator],
CSc1nc(NCCCO)c2c3c(sc2n1)CN(C)CC3,,"inconclusive [activator, partial curve]"
Cc1cc(C)n2c(nc3ccccc32)c1C(=O)NCc1ccccc1,,"inconclusive [activator, partial curve]"
COC(=O)C1=NN(C(C)=O)C2(CC(=O)N(c3cc(C)cc(C)c3)C2=O)C1 (centres undefined),,"inconclusive [inhibitor, single point]"
C=CCOC(=O)CCCC(=O)NC1CCCCC1,,"inconclusive [inhibitor, full curve, poor fit]"
Cc1c(N/C=C/C(=O)C(F)(F)F)c(=O)n(-c2ccccc2)n1C,,inactive
CNc1nc2c(C)cccn2c(=O)c1C=Nc1ccc(OC)cc1,inconclusive: 18.2% [activator],
CCNC(=O)c1cc2c(=O)n3cccc(C)c3nc2n(CCc2ccccc2)c1=N,inconclusive: 15.9% [activator],
COC(=O)c1sccc1NC(=S)Nc1cccc(F)c1,,"inconclusive [inhibitor, single point]"
CCN(CC)C(=O)c1ccc(Cn2cc([N+](=O)[O-])cn2)o1,inconclusive: 16.3% [activator],
O=C(NCc1ccc(Cl)cc1)C1C2C=CC3(CN(Cc4cccnc4)C(=O)C13)O2 (centres undefined),,"inconclusive [inhibitor, full curve, poor fit]"
O=C(NCc1cn(-c2ccccc2)nc1-c1ccccc1)c1ccc([N+](=O)[O-])cc1,,"inconclusive [inhibitor, partial curve, poor fit]"
O=C(COC(=O)Cc1ccc(Cl)cc1Cl)Nc1ccc(OC(F)F)cc1,,"inconclusive [inhibitor, full curve, poor fit]"
CC(C)Nc1oc(-c2cccc3ccccc23)nc1C#N,,"inconclusive [activator, partial curve]"
OCCOCCNc1ncnc2c1cnn2-c1ccccc1,,"inconclusive [inhibitor, single point]"
O=C(C1=NN[C@@H]2C(=O)N(c3cccc(C(F)(F)F)c3)C(=O)[C@H]12)c1ccc2ccccc2n1,inconclusive: -15.4% [inhibitor],
O=C(c1cccs1)N1CCN(c2ccc(F)cc2)CC1,,"inconclusive [inhibitor, single point]"
CCOC(=O)C1CCN(C(=O)C2CCN(c3nc4ccc(OC)cc4s3)CC2)CC1,,"inconclusive [inhibitor, single point]"
Cc1cc(C)nc(SCC(=O)Nc2ccc(S(=O)(=O)N3CCCCC3)cc2)n1,,"inconclusive [inhibitor, partial curve]"
CC(=O)c1ccc(-c2cccs2)s1,,"inconclusive [activator, partial curve]"
COc1ccc(-c2nc(CN(CC3CCC(=O)N3)C(C)C)c(C)o2)c(C)c1C (centres undefined),inconclusive: 18.9% [activator],

SMILES,"activity change, negative = inhibition",Potency
CCCCC(=O)N(CCOC)c1nnc(-c2ccccc2C)s1,inconclusive: 7.56% [activator],
CC(C)n1c(=N)c(C(=O)NCCc2ccccc2)cc2c(=O)n3ccccc3nc21,,"inconclusive [activator, partial curve]"
CS(=O)(=O)Nc1ccc(C2=NN(C(=O)c3ccco3)C(c3ccccc3)C2)cc1 (centres undefined),,inactive
O=C(NC1CCS(=O)(=O)C1)c1ccc(-c2ccc(Br)cc2)o1 (centres undefined),,"inconclusive [inhibitor, single point]"
O=C(CCc1nnc(CCCCc2ccccc2)o1)N(CCO)Cc1ccccc1,,"inconclusive [inhibitor, single point]"
O=C(NCCCn1ccnc1)/C(=C/c1ccccc1)NC(=O)c1ccccc1,inconclusive: 14% [activator],
CCC(=O)N(CCO)Cc1cc2ccc(C)c(C)c2[nH]c1=O,,"inconclusive [inhibitor, single point]"
CCC(OC(=O)c1nsc(Cl)c1Cl)C(=O)NC(C)(C)CC (centres undefined),inconclusive: 14.9% [activator],
Brc1ccc(-c2cn3nc4c(nc3n2)CCCC4)cc1,,inactive
CCc1ccc(OCC(=O)Nc2ccc3c(c2)COC3=O)cc1,,"inconclusive [inhibitor, single point]"
CC(C)(C)c1ccc(NC(=O)CNC2CCCc3ccccc32)cc1 (centres undefined),,"inconclusive [inhibitor, partial curve]"
COc1ccccc1OCCn1c(=O)sc2ccccc21,,"inconclusive [inhibitor, full curve, poor fit]"
COc1cccc(NC(=O)Cn2c(CCC(=O)O)ccc2-c2ccc(Cl)cc2)c1,inconclusive: 16.7% [activator],
Cc1ccc(OCC(=O)NC2CC(C)(C)NC(C)(C)C2)cc1C,inconclusive: 20.5% [activator],
COc1ccc2[nH]c3c(=O)n4c(nc3c2c1)SCC4,,"inconclusive [activator, single point]"
Cc1cc(NC(=O)c2coc(=O)c(Br)c2)ccc1C(C)C,,"inconclusive [activator, partial curve]"
CCOC(=O)c1c(C2CC2)csc1NC(=O)COC(=O)c1cnc(Cl)c(Cl)c1,inconclusive: -16.4% [inhibitor],
O=C(OCC(=O)c1ccc[nH]1)c1ccccc1,,"inconclusive [inhibitor, single point]"
CN1C2C=C3C(C#N)=C(N)C(C#N)(C#N)[C@@H](c4ccsc4)[C@@H]3C1CC2 (some centres undefined),inconclusive: -16.2% [inhibitor],
CN(C)S(=O)(=O)c1ccc2[nH]cc(/C=C/c3nc4ccccc4c(=O)n3-c3ccccc3)c2c1,,"inconclusive [activator, partial curve, poor fit]"
COC(=O)CCc1sc(Nc2ccccc2)nc1-c1ccc(OC)cc1,,"inconclusive [inhibitor, single point]"
Cc1ccccc1OCC(O)CN1CCC(C)CC1 (centres undefined),inconclusive: 19% [activator],
CC(=O)c1ccc2noc(-c3ccccc3)c2c1,inconclusive: 14.6% [activator],
